# According to PMC4336329 (PLoS ONE, 2015):
# Hit rate of the full screen: of about 310,000 compounds, about 2,200 (0.71%) showed an effect of 50% or more. The effect is printed as a negative number. The list shows a part of the results.
# Target: human ether-à-go-go-related gene (hERG) potassium channel (human, UniProt Q12809)
# Assay: primary screen, population patch clamp on CHO cells stably expressing hERG
# human ether-à-go-go-related gene (hERG) potassium channel, sequence (Q12809 whole entry, looked up): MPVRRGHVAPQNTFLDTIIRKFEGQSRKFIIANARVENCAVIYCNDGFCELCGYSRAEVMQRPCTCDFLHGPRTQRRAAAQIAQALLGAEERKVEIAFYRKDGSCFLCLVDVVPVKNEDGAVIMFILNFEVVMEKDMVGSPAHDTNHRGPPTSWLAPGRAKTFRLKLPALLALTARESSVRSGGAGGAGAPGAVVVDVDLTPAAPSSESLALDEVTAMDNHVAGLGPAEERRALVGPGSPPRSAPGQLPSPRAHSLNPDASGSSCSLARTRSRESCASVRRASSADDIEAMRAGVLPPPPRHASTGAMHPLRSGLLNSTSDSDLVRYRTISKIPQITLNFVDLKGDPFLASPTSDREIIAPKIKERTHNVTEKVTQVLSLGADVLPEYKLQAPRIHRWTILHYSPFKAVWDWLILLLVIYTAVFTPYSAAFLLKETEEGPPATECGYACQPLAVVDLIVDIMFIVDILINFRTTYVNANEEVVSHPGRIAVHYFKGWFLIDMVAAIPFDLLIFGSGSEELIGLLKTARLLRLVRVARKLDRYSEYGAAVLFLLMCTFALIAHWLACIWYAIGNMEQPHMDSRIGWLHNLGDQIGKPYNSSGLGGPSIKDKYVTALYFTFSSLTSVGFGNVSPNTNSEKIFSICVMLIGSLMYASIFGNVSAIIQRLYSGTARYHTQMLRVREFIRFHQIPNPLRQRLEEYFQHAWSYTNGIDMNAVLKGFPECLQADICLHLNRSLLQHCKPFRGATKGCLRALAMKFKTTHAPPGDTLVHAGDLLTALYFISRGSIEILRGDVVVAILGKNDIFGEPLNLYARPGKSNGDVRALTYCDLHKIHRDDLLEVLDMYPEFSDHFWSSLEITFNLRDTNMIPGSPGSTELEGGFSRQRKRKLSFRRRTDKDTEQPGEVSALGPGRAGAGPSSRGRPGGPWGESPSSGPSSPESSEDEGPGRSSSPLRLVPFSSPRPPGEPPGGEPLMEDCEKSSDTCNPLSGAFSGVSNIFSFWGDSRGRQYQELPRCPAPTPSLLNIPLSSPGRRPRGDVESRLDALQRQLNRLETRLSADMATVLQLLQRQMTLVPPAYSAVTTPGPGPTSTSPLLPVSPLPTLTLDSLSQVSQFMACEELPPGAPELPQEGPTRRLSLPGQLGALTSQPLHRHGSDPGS
row,Structure (SMILES),"hERG current change (%, negative = inhibition) at 1uM [%]"
1,CCCCNC(=O)c1nnn(-c2ccccc2)c1N,0.715
2,O=C(CN1CCN(S(=O)(=O)c2ccc(F)cc2)CC1)Nc1ccccc1F,-8.92
3,O=C(CSc1nc2ccccc2s1)N1CCN(C(=O)c2ccco2)CC1,-14.7
4,Cc1cc(C)cc(N(CC(=O)N2CCc3ccccc32)S(=O)(=O)c2c(C)noc2C)c1,-5.87
5,CC(=O)Nc1cccc(NC(=S)Nc2ccc(F)cc2F)c1,3.18
6,CCOc1ccccc1N1CCN(CC(=O)Nc2cc(C)on2)CC1,10.8
7,O=C(Cc1ccc(-n2cccc2)cc1)N1CCN(c2ccccc2F)CC1,3.88
8,Cc1ccc(NC(C)C(=O)N/N=C/c2c[nH]c3ccccc23)cc1 (stereo not shown),6.05
9,c1ccc(-c2cc(-c3ccccc3)on2)cc1,3.24
10,COc1cc2c(cc1O)CC[n+]1cc3c(OC)c(OC)ccc3cc1-2,0.2
11,COc1ccc(NC(C)C(=O)Nc2ccc(C(C)(C)C)cc2)cc1Cl (stereo not shown),3.39
12,O=C1CCCC(=O)C1=C1SCCCS1,14.7
13,N#C/C(=C\Nc1ccc(Cl)cc1)S(=O)(=O)c1ccccn1,2.72
14,Cc1ccn(CCC(=O)NC2CC(C)(C)Cc3c2cnn3-c2ccccc2C)n1 (stereo not shown),-0.399
15,CCOC(=O)C1CCN(c2c(N3CCN(Cc4ccccc4)CC3)c(=O)c2=O)CC1,-66.6
16,CCNc1nc(NC(N)=S)nc(NC(C)(C)C)n1,9.58
17,COc1cc2sc3ccc(-c4ccc(N(C)C)nc4)cc3c(=O)c2cc1OC,14.6
18,Nc1c(-c2ccccc2)n[nH]c1-c1ccccc1,3
19,CCOn1c(=O)c(-c2cccc([N+](=O)[O-])c2)[n+]([O-])c2ccccc21,14.3
20,COc1cccc(CNC(=O)Cn2nc(C)c([N+](=O)[O-])c2C)c1,11
21,O=C(CSc1nccc(-c2cccs2)n1)Nc1ccccc1,11.4
22,CCCc1nnc(NC(=O)CC(=O)OCC)s1,-0.758
23,CCCCn1nnc(NC(=S)NC(=O)c2cccs2)n1,8.66
24,Cc1coc2cc3oc(=O)c(CCC(=O)N[C@@H](CCCNC(N)=O)C(=O)O)c(C)c3cc12,12.1
25,Nc1ccn(Cc2ccccc2F)n1,12.1

row,Structure (SMILES),"hERG current change (%, negative = inhibition) at 1uM [%]"
1,Cc1cc(C)n2nc(SC(C)C(=O)Nc3ccc(Cl)cn3)nc2n1 (stereo not shown),3.17
2,CCCCn1c(O)c(/C(CC)=N/N2CCCCC2c2cccnc2)c(=O)[nH]c1=S (stereo not shown),-0.161
3,Cc1ccc(S(=O)(=O)/C(C#N)=C/c2c(N3CCC(C(N)=O)CC3)nc3c(C)cccn3c2=O)cc1,-16.7
4,Cc1ccc(Nc2nnc(C)c(=O)[nH]2)cc1,6.76
5,CCOC(=O)/C(C#N)=C/c1c(Oc2cccc(C)c2)nc2ccccn2c1=O,-10.2
6,O=C(/C=C/c1ccc(Br)cc1)NCCCn1ccnc1,-23.9
7,COc1ccccc1N(C)S(=O)(=O)c1ccc(C(=O)NC2CCCCC2)cc1,8.88
8,O=C(O)C1CSC2(c3ccc(Br)cc3)CCC(=O)N12 (stereo not shown),7.22
9,COC(CNC(=O)c1c[nH]c2ccc(S(=O)(=O)N3CCC4(CC3)OCCO4)cc2c1=O)OC,5.52
10,Cc1nc(SCC#N)c2c(C)c(C)sc2n1,15.5
11,Cc1ccc(SCCN2CCN(C)CC2)cc1.Cl,13.4
12,O=C1CCc2cc(NS(=O)(=O)c3ccccc3)cc3c2N1CC3,3.85
13,COc1ccc(C(=O)OCCc2sc[n+](CC(=O)c3ccccc3)c2C)cc1.[Br-],9.69
14,COc1ccc(CN(C)CC(=O)Nc2ccc(N3CCOCC3)cc2)cc1OC,11.2
15,CCCCCn1c(=O)c(C(=O)Nc2ccccc2C)c(O)c2ccccc21,20.5
16,O=[N+]([O-])c1cn(Cc2ccccc2)cn1,7.46
17,CN(c1ccc(O)cc1)c1nc(O)c(C2=c3ccccc3=NC2=O)s1,8.57
18,CCc1cccc2c(SCC(=O)NCC3CCCO3)nc(-c3ccc(F)cc3)nc12 (stereo not shown),13.3
19,CSc1nc(=S)n(Cc2ccccc2)c(C)c1C(C)=O,10.4
20,COc1ccc(NC(=O)c2cc(S(=O)(=O)N3CCS(=O)(=O)CC3)ccc2Cl)cc1,6.7
21,COc1ccc(S(=O)(=O)N2CCCCCC2)cc1C(=O)NCCc1ccccc1,1.5
22,COc1cccc(CNC(=O)C2=C(C)C(=O)OC23CCC(C)CC3)c1 (stereo not shown),1.11
23,CC1CCN(C(=O)CSc2nc(C(C)C)nc3c2c(=O)n(C)c(=O)n3C)CC1,6.77
24,COc1ccccc1NS(=O)(=O)c1ccc2c(c1)n(C)c(=O)n2C,-0.0251
25,O=C(O)CCCC(=O)Nc1ccc(Oc2ncnc3cc(Cl)ccc23)nc1,4.36

row,Structure (SMILES),"hERG current change (%, negative = inhibition) at 1uM [%]"
1,CC(C)c1ccc(NC(=O)C2CC(=O)Nc3nc4ccccc4n32)cc1 (stereo not shown),18.6
2,O=C(NC1CCCC1)c1cc(COc2ccc3ncccc3c2)on1,7.53
3,COC(=O)C1C/C(=N/NS(=O)(=O)c2ccc(C)cc2)CS1 (stereo not shown),12.5
4,CC1=Nc2ccccc2N=C(NC(=O)CSc2nnnn2-c2ccccc2)C1c1ccccc1 (stereo not shown),12.2
5,O=C(O)C1CC=CCC1C(=O)Nc1ccccc1Cl (stereo not shown),10.9
6,Cn1cccc1/C=C1\SC(=S)N(NC(=O)c2ccc(Cl)cc2)C1=O,17.6
7,Cc1cc(/C=C(\C#N)C(=O)Nc2ccc(F)cc2)c(C)n1-c1ccc(N2CCOCC2)c([N+](=O)[O-])c1,0.296
8,CC1=C(C(=O)O)N2C(=O)C(NC(=O)CCCC(=O)O)C2SC1 (stereo not shown),10
9,O=c1c(-c2ccc(F)cc2)coc2cc(O)ccc12,5.42
10,Fc1ccc(NC(=S)Nc2cc(Cl)ccc2Cl)cc1,13.9
11,COc1ccc(C(=O)O)cc1S(=O)(=O)N1CCCc2ccccc21,16.8
12,COC(=O)c1ccc(CN2CCCC(C(=O)Nc3cccc(-n4cccn4)c3)C2)cc1 (stereo not shown),12.7
13,CN(C)c1ccc(/C=N/NC(=O)CSc2ccccn2)cc1,15.7
14,O=C(CSc1nc2[nH]ncc2c(=O)[nH]1)c1ccc(Cl)cc1,6.83
15,CN(C)c1ccc(C=C(c2nnnn2-c2ccccc2)c2nnnn2-c2ccccc2)cc1,12.7
16,NC(=O)c1cc(Cl)ccc1OCC(=O)Nc1ccc2c(c1)OCO2,2.94
17,O=C(CN1C(=O)CSC1=O)Nc1ccc(F)c(F)c1F,8.29
18,COc1ccc(/C=N/NC(=O)c2cc[n+]([O-])cc2)cc1,13
19,Cl.NCC(c1ccccc1)(c1ccccc1)c1ccccc1,9.03
20,O=C(O)c1cc(-c2ccccc2)n[nH]1,11.4
21,CCOC(=O)C1CCCN(S(=O)(=O)c2cc(C(=O)OC)n(C)c2)C1 (stereo not shown),18.3
22,CCOc1ccc(CC(=O)Nc2c(C(N)=O)oc3ccccc23)cc1OCC,13.6
23,Cc1ccc(OCC(=O)NNC(=S)NC(=O)c2cccs2)c(C)c1,16.1
24,O=C1NN(c2ccc(F)cc2)C(=O)/C1=C\c1cnn(-c2ccccc2)c1,5
25,O=C(c1ccc(F)cc1)C1CCN(C(=O)NCc2ccccc2)CC1,-5.59

row,Structure (SMILES),"hERG current change (%, negative = inhibition) at 1uM [%]"
1,COc1cccc(C(=O)Nc2c3c(nn2-c2ccc([N+](=O)[O-])cc2)CS(=O)(=O)C3)c1,-16.8
2,CSc1ncccc1C(=O)NCc1ccc(C)cc1,13.7
3,CCCC1=NN2C(=N)/C(=C\c3cc(C)n(-c4cccc(C)c4)c3C)C(=O)N=C2S1,9.49
4,COC(=O)N/N=C/c1cn(CCOc2ccccc2)c2ccccc12,13.5
5,N#CC1=C(N)Oc2cc(O)c(Cl)cc2C1c1ccccc1F (stereo not shown),4.36
6,COc1cccc(NC(=O)C2CCCN(S(=O)(=O)c3cccc4nsnc34)C2)c1 (stereo not shown),7.5
7,C/C(=N\Nc1nncc2ccccc12)c1ccc(Cl)c([N+](=O)[O-])c1,14.5
8,NNC(=O)c1oc2nc(-c3ccc(Cl)cc3)cc(-c3ccccc3)c2c1N,16.4
9,Cc1cc(C)c2ccc(Cl)cc2n1,13.5
10,Cc1cc(OC(=O)c2c(Cl)cccc2Cl)nc(C)n1,-7.43
11,Cc1cc(NC(=O)C2C3C(=O)N(c4cccnc4)C(C(=O)NC(C)(C)C)C34C=CC2(C)O4)no1 (stereo not shown),26.4
12,CCOC(=O)CSC(CC)C(=O)Nc1nnc(C(C)C)s1 (stereo not shown),4.92
13,N#Cc1cc2ccccc2nc1SCC(=O)Nc1ccc(S(=O)(=O)N2CCCC2)cc1,11.9
14,COc1ccc(Cn2nnnc2C(C(C)C)N2CCc3ccccc32)cc1 (stereo not shown),3.74
15,Cc1ccc(OCc2ccc(Br)cc2)c([N+](=O)[O-])n1,7.33
16,Cn1c(C(C#N)C2=C(Cl)C(=O)N(c3ccccc3)C2=O)nc2ccccc21 (stereo not shown),6.28
17,O=C(c1cccc(C(F)(F)F)c1)C1CCCN(Cc2cccn2-c2ccccn2)C1 (stereo not shown),-90.4
18,O=C(NCc1cccs1)c1ccc(Br)o1,11.9
19,COc1cc(CNCCc2ccc(S(N)(=O)=O)cc2)ccc1OCC(=O)NC1CCCCC1.Cl,23.4
20,NC(=O)C1CN(C(=O)c2cccc(S(=O)(=O)N3CCc4ccccc43)c2)c2ccccc2O1 (stereo not shown),9.66
21,CCC1C/C(=C\c2cc(OC)c(OC)cc2OC)C(=O)/C(=C/c2cc(OC)c(OC)cc2OC)C1 (stereo not shown),13.8
22,O=C(c1cccc(S(=O)(=O)NCc2ccc3c(c2)OCO3)c1)N1CCCC1,6.84
